Test results published in the supplement of paper PMC7826260.
The other results are listed elsewhere or left out. Each Rep nickase domain was tested in vitro on the same pool of single strands (1 h at 37 °C, 3 µM enzyme); the outer parts of the 90-letter strands are left off. Values are log2 of uncut reads against the no-enzyme pool; more negative means more cut, near 0 not cut, and no call is made. The scaling is to total reads; values above 0 arise when much of the pool is cut.

Assays:
Test in all cases: uncleaved DNA left, log2 of reads against the no-enzyme library (log2 ratio); higher = less cleavage (more negative = more Rep cleavage of the k-mer); sequences stand for … in CTCGTCCG…ACCGGAGA
[1] = system: T1, Rep nickase domain of Muscovy duck circovirus
T1 sequence (Rep 1-111, printed without the tag): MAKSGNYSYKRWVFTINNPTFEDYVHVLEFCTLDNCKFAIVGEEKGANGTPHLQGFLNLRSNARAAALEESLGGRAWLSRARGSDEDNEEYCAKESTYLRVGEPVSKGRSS
Protocol: (§1)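 A pool of 90-nt single-stranded DNAs with seven random bases just before the constant AC of the nick site (name = the seven bases) was cut by 3 µM recombinant His6-SUMO-tagged Rep nickase domain (300 nM DNA, 50 mM HEPES pH 8.0, 50 mM NaCl, 1 mM MnCl2, 1 h, 37 °C, three replicates). Uncut DNA was amplified and sequenced.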

[2] = system: T2, Rep nickase domain of banana bunchy top virus
T2 sequence (Rep 1-94, printed without the tag): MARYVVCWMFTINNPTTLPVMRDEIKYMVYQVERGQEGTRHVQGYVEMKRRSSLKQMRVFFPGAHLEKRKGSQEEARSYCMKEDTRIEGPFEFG
Protocol: as §1

[3] = system: T3, Rep nickase domain of cabbage leaf curl virus
T3 sequence (Rep 1-116, printed without the tag): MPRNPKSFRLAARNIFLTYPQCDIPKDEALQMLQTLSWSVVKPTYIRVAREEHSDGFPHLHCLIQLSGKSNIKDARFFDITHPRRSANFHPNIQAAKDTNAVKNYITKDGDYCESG
Protocol: as §1

[4] = system: T4, Rep nickase domain of chickpea chlorotic dwarf virus
T4 sequence (Rep 1-124, printed without the tag): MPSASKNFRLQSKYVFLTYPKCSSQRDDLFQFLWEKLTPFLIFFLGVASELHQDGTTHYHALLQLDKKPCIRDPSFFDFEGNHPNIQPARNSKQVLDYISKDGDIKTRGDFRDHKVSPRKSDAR
Protocol: as §1

[5] = system: T5, Rep nickase domain of faba bean necrotic yellows virus
T5 sequence (Rep 1-98, printed without the tag): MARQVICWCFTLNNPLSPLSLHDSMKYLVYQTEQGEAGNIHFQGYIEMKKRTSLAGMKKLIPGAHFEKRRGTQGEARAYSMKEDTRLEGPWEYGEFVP
Protocol: as §1

[6] = system: T6, Rep nickase domain of maize striate mosaic virus
T6 sequence (Rep 1-117, printed without the tag): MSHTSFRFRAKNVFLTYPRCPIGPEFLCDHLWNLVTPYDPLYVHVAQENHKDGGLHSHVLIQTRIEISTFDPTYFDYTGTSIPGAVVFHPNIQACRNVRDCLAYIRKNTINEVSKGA
Protocol: as §1

[7] = system: T7, Rep nickase domain of porcine circovirus 2
T7 sequence (Rep 2-116, printed without the tag): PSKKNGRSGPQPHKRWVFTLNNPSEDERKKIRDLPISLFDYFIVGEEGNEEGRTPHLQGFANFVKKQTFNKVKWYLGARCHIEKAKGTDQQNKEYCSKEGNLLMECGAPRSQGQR
Protocol: as §1

[8] = system: T8, Rep nickase domain of tomato golden mosaic virus
T8 sequence (Rep 1-124, printed without the tag): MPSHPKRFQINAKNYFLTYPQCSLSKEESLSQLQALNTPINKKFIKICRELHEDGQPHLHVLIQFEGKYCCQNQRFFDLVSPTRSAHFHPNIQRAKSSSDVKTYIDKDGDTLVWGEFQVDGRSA
Protocol: as §1

[9] = system: T9, Rep nickase domain of tomato yellow leaf curl virus
T9 sequence (Rep 1-136, printed without the tag): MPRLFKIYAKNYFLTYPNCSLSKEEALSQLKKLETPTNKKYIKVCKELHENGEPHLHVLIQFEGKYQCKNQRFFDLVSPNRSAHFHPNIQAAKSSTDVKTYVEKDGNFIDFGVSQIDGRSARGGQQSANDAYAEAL
Protocol: as §1

[10] = system: T10, Rep nickase domain of wheat dwarf virus
T10 sequence (Rep 1-137, printed without the tag): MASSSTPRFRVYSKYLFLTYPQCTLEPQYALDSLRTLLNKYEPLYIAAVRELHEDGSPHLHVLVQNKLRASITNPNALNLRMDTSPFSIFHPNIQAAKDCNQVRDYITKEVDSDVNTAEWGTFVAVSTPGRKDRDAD
Protocol: as §1

Row | Sequence | uncleaved DNA left (log2) [1] | uncleaved DNA left (log2) [2] | uncleaved DNA left (log2) [3] | uncleaved DNA left (log2) [4] | uncleaved DNA left (log2) [5] | uncleaved DNA left (log2) [6] | uncleaved DNA left (log2) [7] | uncleaved DNA left (log2) [8] | uncleaved DNA left (log2) [9] | uncleaved DNA left (log2) [10]
1 | TTTGGCG | 0.0173 | -0.0146 | -0.585 | 0.948 | 0.0578 | -0.238 | 0.126 | -0.0609 | -0.085 | -0.132
2 | TTCGCCA | -0.113 | -0.0268 | 0.0162 | -0.861 | -0.0305 | -0.553 | -0.197 | -0.089 | -0.12 | -0.0634
3 | GCTCGTC | -0.0911 | 0.0174 | 0.349 | 1.3 | -0.0189 | 1.08 | -0.104 | -0.0386 | 0.0283 | -0.0715
4 | GATCACT | -0.142 | -0.0359 | 0.124 | -1.89 | 0.067 | 0.77 | -0.87 | -0.0484 | -0.00858 | 0.0394
5 | GGATGGA | 0.00951 | -0.0149 | 0.565 | 1.09 | 0.00669 | 1.6 | 0.106 | -0.0236 | -0.0887 | -0.0203
6 | CCCTTCG | 0.019 | -0.221 | -0.934 | 0.23 | -0.0618 | -0.742 | 0.0956 | -0.166 | 0.0374 | -0.0223
7 | TCCGTTA | 0.176 | 0.0225 | 0.17 | -0.399 | 0.095 | 0.104 | -0.00237 | 0.0276 | 0.0711 | 0.0745
8 | TTGAAGG | 0.0263 | 0.00646 | 0.466 | 1.23 | 0.0266 | 1.26 | 0.127 | 0.0436 | -0.181 | 0.0243
9 | CTAACAG | 0.026 | 0.036 | -0.834 | -1.58 | 0.0559 | -1.12 | 0.102 | -0.0178 | -0.042 | -0.016
10 | ATTGCAC | 0.0962 | -0.0305 | -0.645 | -0.482 | 0.0382 | -1.19 | 0.0554 | 0.022 | -0.0447 | -0.103
11 | AGATCCC | 0.0137 | 0.126 | 0.591 | 1.48 | 0.0932 | 2.08 | 0.0415 | -0.0682 | 0.0963 | 0.149
12 | ATCAGAT | 0.0127 | -0.0827 | 0.116 | 0.996 | -0.00278 | 1.06 | 0.129 | 0.109 | -0.0346 | 0.0306
13 | GAAGGTG | -0.0209 | -0.0522 | 0.116 | 0.491 | -0.0163 | 0.465 | 0.0417 | 0.0169 | -0.0899 | 0.0122
14 | AATCGTG | 0.0421 | -0.0701 | -0.586 | -0.742 | -0.0848 | -1.25 | 0.199 | -0.0138 | 0.164 | -0.073
15 | TACACTG | -0.0156 | -0.042 | -0.151 | 0.215 | -0.0717 | 0.507 | -0.0772 | -0.0948 | -0.079 | 0.00376
16 | GTACCCG | -0.0935 | -0.0815 | -0.634 | -0.879 | 0.0793 | -0.785 | -0.805 | -0.00623 | -0.0385 | -0.0417
17 | CTACTGA | 0.0858 | -0.0438 | -0.0415 | 0.288 | -0.126 | 1.16 | 0.0902 | 0.0676 | 0.0854 | 0.159
18 | CCCCTGT | -0.118 | -0.0536 | -0.112 | -0.566 | -0.0661 | -0.458 | -0.181 | -0.165 | -0.101 | -0.131
19 | TGATCGT | -0.104 | 0.00324 | -0.255 | -0.63 | -0.132 | -0.739 | -0.183 | -0.0867 | 0.0282 | -0.0772
20 | ATTTCTT | -3.04 | -3.04 | -0.181 | -2.57 | -0.00391 | -0.626 | -3.1 | 0.0541 | 0.0556 | -0.0598
21 | AGTGCGT | 0.0284 | -0.0378 | -0.723 | -0.287 | 0.172 | -0.632 | -0.273 | 0.0333 | 0.147 | -0.1
22 | CATTGGA | 0.094 | -0.0525 | -0.717 | -0.691 | 0.057 | -1.16 | -0.155 | 0.032 | 0.158 | 0.095
23 | GTACATC | 0.0141 | 0.0729 | 0.473 | 1.17 | 0.0419 | 1.84 | 0.118 | -0.0103 | 0.0419 | 0.105
24 | TGGGGGG | 0.031 | -0.0329 | 0.125 | 0.329 | -0.125 | 0.296 | 0.13 | 0.0761 | -0.069 | -0.199
25 | GACGACC | -0.0287 | 0.0864 | 0.127 | 0.586 | -0.0418 | 0.331 | -0.0986 | -0.0393 | 0.0818 | 0.015
26 | TACATCG | 0.0234 | -0.0762 | -0.863 | -0.33 | 0.0761 | -0.975 | 0.0965 | -0.0333 | -0.0555 | -0.122
27 | CATTAGC | -0.0292 | -0.0672 | -0.665 | -0.798 | 0.075 | -1.21 | 0.188 | -0.0064 | 0.0265 | -0.0105
28 | ACTCAAA | 0.0841 | 0.129 | -0.0813 | 0.0223 | 0.0589 | -0.562 | 0.133 | 0.159 | -0.0305 | -0.0528
29 | ATATACA | -0.122 | -0.0509 | -0.261 | -2.23 | -0.0628 | -0.697 | -0.188 | 0.107 | -0.125 | 0.0196
30 | CTTAAGG | 0.0658 | 0.116 | 0.398 | 1.39 | 0.102 | 1.35 | 0.217 | 0.0703 | 0.0158 | 0.0762
